Source: paper PMC9636131
These are yes or no findings as the source states them, for the method shown. In cells and extracts the contact can be indirect. Some binding calls cover weakened binding; strength is not graded here. Tags and fused reporters may be left off the sequences shown.

Sequences of proteins named here, by UniProt entry; tags and fusion partners are left off.
UniProt P16220: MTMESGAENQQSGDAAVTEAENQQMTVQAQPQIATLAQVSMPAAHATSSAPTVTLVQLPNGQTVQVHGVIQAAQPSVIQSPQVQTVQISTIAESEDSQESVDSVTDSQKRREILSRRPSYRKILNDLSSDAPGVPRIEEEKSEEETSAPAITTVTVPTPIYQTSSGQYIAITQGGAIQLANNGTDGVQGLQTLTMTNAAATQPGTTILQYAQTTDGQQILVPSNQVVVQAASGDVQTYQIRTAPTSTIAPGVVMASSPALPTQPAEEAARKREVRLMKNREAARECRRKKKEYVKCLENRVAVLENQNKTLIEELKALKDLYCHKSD
UniProt Q00613: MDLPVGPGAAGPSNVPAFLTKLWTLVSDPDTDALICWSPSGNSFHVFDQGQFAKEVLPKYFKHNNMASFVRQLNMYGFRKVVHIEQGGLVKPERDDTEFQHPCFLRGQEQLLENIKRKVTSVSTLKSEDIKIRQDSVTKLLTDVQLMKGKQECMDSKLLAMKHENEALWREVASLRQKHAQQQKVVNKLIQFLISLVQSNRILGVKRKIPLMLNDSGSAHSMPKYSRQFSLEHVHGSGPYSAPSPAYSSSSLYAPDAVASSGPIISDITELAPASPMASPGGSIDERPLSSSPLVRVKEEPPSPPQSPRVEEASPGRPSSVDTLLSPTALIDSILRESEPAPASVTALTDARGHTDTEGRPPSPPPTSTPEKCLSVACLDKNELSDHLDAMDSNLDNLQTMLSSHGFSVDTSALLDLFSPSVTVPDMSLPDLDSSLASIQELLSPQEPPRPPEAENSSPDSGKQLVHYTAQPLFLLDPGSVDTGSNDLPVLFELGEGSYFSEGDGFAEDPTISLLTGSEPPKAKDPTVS
UniProt Q9UJU2: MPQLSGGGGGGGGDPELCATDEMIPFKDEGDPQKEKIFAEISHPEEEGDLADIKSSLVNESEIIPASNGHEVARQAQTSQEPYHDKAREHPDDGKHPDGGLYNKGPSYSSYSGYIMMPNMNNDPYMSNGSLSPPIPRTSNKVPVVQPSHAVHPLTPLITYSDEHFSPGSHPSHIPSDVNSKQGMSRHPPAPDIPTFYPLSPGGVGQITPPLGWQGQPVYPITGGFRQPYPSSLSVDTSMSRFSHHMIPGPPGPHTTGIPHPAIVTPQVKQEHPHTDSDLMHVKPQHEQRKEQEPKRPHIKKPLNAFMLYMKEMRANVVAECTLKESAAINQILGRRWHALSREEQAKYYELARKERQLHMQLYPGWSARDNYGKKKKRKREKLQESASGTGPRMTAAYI
UniProt O95863: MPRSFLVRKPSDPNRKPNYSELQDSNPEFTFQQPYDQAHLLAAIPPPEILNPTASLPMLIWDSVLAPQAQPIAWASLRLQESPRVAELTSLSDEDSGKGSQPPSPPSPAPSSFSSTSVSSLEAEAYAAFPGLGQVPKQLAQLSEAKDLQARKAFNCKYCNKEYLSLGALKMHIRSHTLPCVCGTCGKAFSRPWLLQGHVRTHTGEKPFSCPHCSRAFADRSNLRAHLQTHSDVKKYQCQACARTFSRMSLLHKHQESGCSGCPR

T1: Metastasis-associated with colon cancer protein 1 (MACC1), FLAG-tagged (human) (UniProt Q6ZN28)
T1 sequence: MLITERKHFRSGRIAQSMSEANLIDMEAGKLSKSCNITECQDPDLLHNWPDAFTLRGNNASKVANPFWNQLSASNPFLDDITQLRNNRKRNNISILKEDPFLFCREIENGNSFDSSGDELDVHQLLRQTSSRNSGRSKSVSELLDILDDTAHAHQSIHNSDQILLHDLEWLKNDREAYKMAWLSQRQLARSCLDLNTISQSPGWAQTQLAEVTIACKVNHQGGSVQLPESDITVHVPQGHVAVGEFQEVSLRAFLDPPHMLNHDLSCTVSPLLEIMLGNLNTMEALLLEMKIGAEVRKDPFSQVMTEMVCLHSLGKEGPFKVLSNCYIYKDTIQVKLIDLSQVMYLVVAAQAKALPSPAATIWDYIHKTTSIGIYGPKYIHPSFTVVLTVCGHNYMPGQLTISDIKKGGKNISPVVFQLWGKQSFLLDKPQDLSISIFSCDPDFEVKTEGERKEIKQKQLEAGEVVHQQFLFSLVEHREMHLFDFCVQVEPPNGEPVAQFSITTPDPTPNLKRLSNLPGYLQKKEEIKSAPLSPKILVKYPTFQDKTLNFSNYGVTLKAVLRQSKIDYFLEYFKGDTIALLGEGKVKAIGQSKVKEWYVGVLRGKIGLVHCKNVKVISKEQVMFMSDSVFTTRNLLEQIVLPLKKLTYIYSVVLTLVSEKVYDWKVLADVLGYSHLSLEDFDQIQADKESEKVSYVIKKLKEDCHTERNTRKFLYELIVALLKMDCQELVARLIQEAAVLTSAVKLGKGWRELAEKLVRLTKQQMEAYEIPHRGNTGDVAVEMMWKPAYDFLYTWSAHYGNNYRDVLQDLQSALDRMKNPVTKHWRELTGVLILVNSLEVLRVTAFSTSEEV

B1: ATF3, HA-tagged (protein, UniProt P18847 1-181)
chain: MMLQHPGQVSASEVSASAIVPCLSPPGSLVFEDFANLTPFVKEELRFAIQNKHLCHRMSSALESVTVSDRPLGVSITKAEVAPEEDERKKRRRERNKIAAAKCRNKKKEKTECLQKESEKLESVNAELKAQIEELKNEKQHLIYMLNLHRPTCIVRAQNGRTPEDERNLFIQQIKEGTLQS

What was measured:
[1] = target: T1, Metastasis-associated with colon cancer protein 1 (MACC1), FLAG-tagged (human); assay: co-IP; HA-tagged transcription factor and FLAG-tagged MACC1 co-expressed in HEK293T cells; lysis in EBC buffer (50 mM Tris pH 7.5, 120 mM NaCl, 0.5% NP-40); anti-Flag or anti-HA beads 3-4 h at 4 °C; three washes in NETN buffer (100 mM NaCl, 20 mM Tris pH 8.0, 1 mM EDTA, 0.5% NP-40); immunoblot with anti-FLAG and anti-HA
[2] = target: T1, Metastasis-associated with colon cancer protein 1 (MACC1), FLAG-tagged (human); assay: co-IP; PANC-1 and SUIT-2 cells transfected with the indicated plasmids; immunoprecipitated with anti-Flag or anti-HA beads; immunoblot with anti-FLAG and anti-HA

Molecule | binding [1] | binding [2]
CREB1, HA-tagged (from UniProt P16220 1-327) | no binding | –
HSF1, HA-tagged (from UniProt Q00613 1-529) | no binding | –
LEF1, HA-tagged (from UniProt Q9UJU2 1-399) | no binding | –
snail family transcriptional repressor 1 (SNAI1), HA-tagged (from UniProt O95863 1-264) | binds | binds
B1 | no binding | –
